# Data published in the supplement of paper PMC8728848.
# The other results are listed elsewhere or left out.
# B1: MGL6A (Homo sapiens) (protein)
# chain: MTRTYENFQYLENKVKVQGFKNGPLPLQSLLQRLCSGPCHLLLSLGLGLLLLVIICVVGFQNSKFQRDLVTLRTDFSNFTSNTVAEIQALTSQGSSLEETIASLKAEVEGFKQERQAVHSEMLLRVQQLVQDLKKLTCQVATLNNNGEEASTEGTCCPVNWVEHQDSCYWFSHSGMSWAEAEKYCQLKNAHLVVINSREEQNFVQKYLGSAYTWMGLSDPEGAWKWVDGTDYATGFQNWKPGQPDDWQGHGLGGGEDCAHFHPDGRWNDDVCQRPYHWVCEAGLGQTSQESH
# How the values were obtained:
# Assay in all cases: glycan array binding signal (z-score within array); higher = stronger binding
# Conditions in all cases: glycan notation: IUPAC condensed, linker removed
# [1] = biological target: Gal(a1-4)Gal(b1-4)GlcNAc(b1-2)Man(a1-3)[Gal(a1-4)Gal(b1-4)GlcNAc(b1-2)Man(a1-6)]Man(b1-4)GlcNAc(b1-4)GlcNAc
# Summary of the method: (§1)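 Glycan array data were curated from 3228 arrays in the Consortium for Functional Glycomics database and kept only where the protein sequence was available. Glycan names were converted to IUPAC-condensed notation, and columns mapping to the same glycan were averaged. The binding signal is a within-array Z-score, averaged across arrays of the same protein sequence at different concentrations or buffers and across linkers. Negative Z-scores can be read as non-binding.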
# [2] = biological target: Gal(a1-4)Gal(b1-4)GlcNAc(b1-3)Gal(b1-4)Glc
# Summary of the method: as §1
# Gal(a1-4)GlcNAc = biological target: Gal(a1-4)GlcNAc
# Summary of the method: as §1
# Gal(a1-6)Glc = biological target: Gal(a1-6)Glc
# Summary of the method: as §1
# Gal(b1-2)Gal = biological target: Gal(b1-2)Gal
# Summary of the method: as §1
# Gal(b1-3)Gal = biological target: Gal(b1-3)Gal
# Summary of the method: as §1
# Gal(b1-3)Gal(b1-4)GlcNAc = biological target: Gal(b1-3)Gal(b1-4)GlcNAc
# Summary of the method: as §1
# [3] = biological target: Gal(b1-3)Gal(b1-4)GlcNAc(b1-2)Man(a1-3)[Gal(b1-3)Gal(b1-4)GlcNAc(b1-2)Man(a1-6)]Man(b1-4)GlcNAc(b1-4)GlcNAc
# Summary of the method: as §1
# Gal(b1-3)GalNAc = biological target: Gal(b1-3)GalNAc
# Summary of the method: as §1
# [4] = biological target: Gal(b1-3)GalNAc(a1-3)[Fuc(a1-2)]Gal(b1-4)Glc
# Summary of the method: as §1
# [5] = biological target: Gal(b1-3)GalNAc(a1-3)[Fuc(a1-2)]Gal(b1-4)GlcNAc
# Summary of the method: as §1
# Gal(b1-3)GalNAc(b1-3)Gal = biological target: Gal(b1-3)GalNAc(b1-3)Gal
# Summary of the method: as §1
# [6] = biological target: Gal(b1-3)GalNAc(b1-3)Gal(a1-4)Gal(b1-4)Glc
# Summary of the method: as §1
# [7] = biological target: Gal(b1-3)GalNAc(b1-4)Gal(b1-4)Glc
# Summary of the method: as §1
# [8] = biological target: Gal(b1-3)GalNAc(b1-4)[Neu5Ac(a2-3)]Gal(b1-4)Glc
# Summary of the method: as §1
# Gal(b1-3)GlcNAc = biological target: Gal(b1-3)GlcNAc
# Summary of the method: as §1
# [9] = biological target: Gal(b1-3)GlcNAc(a1-3)Gal(b1-4)GlcNAc
# Summary of the method: as §1
# [10] = biological target: Gal(b1-3)GlcNAc(a1-6)Gal(b1-4)GlcNAc
# Summary of the method: as §1
# Gal(b1-3)GlcNAc(b1-2)Man = biological target: Gal(b1-3)GlcNAc(b1-2)Man
# Summary of the method: as §1
# [11] = biological target: Gal(b1-3)GlcNAc(b1-2)Man(a1-3)[Gal(b1-3)GlcNAc(b1-2)Man(a1-6)]Man(b1-4)GlcNAc(b1-4)GlcNAc
# Summary of the method: as §1
# [12] = biological target: Gal(b1-3)GlcNAc(b1-2)Man(a1-3)[Gal(b1-3)GlcNAc(b1-2)Man(a1-6)]Man(b1-4)GlcNAc(b1-4)[Fuc(a1-6)]GlcNAc
# Summary of the method: as §1
# [13] = biological target: Gal(b1-3)GlcNAc(b1-2)Man(a1-3)[GlcNAc(b1-4)][Gal(b1-3)GlcNAc(b1-2)Man(a1-6)]Man(b1-4)GlcNAc(b1-4)GlcNAc
# Summary of the method: as §1
# [14] = biological target: Gal(b1-3)GlcNAc(b1-2)[Gal(b1-3)GlcNAc(b1-6)]Man(a1-6)[Gal(b1-3)GlcNAc(b1-2)Man(a1-3)]Man(b1-4)GlcNAc(b1-4)GlcNAc
# Summary of the method: as §1
# [15] = biological target: Gal(b1-3)GlcNAc(b1-3)Gal(b1-3)GlcNAc
# Summary of the method: as §1
# [16] = biological target: Gal(b1-3)GlcNAc(b1-3)Gal(b1-4)Glc
# Summary of the method: as §1
# [17] = biological target: Gal(b1-3)GlcNAc(b1-3)Gal(b1-4)GlcNAc
# Summary of the method: as §1
# [18] = biological target: Gal(b1-3)GlcNAc(b1-3)Gal(b1-4)GlcNAc(b1-2)Man(a1-3)[Gal(b1-3)GlcNAc(b1-3)Gal(b1-4)GlcNAc(b1-2)Man(a1-6)]Man(b1-4)GlcNAc(b1-4)GlcNAc
# Summary of the method: as §1
# [19] = biological target: Gal(b1-3)GlcNAc(b1-3)Gal(b1-4)GlcNAc(b1-2)[Gal(b1-3)GlcNAc(b1-3)Gal(b1-4)GlcNAc(b1-6)]Man(a1-6)[Gal(b1-3)GlcNAc(b1-3)Gal(b1-4)GlcNAc(b1-2)Man(a1-3)]Man(b1-4)GlcNAc(b1-4)[Fuc(a1-6)]GlcNAc
# Summary of the method: as §1
# [20] = biological target: Gal(b1-3)GlcNAc(b1-3)Gal(b1-4)GlcNAc(b1-3)Gal(b1-4)GlcNAc(b1-2)[Gal(b1-3)GlcNAc(b1-3)Gal(b1-4)GlcNAc(b1-3)Gal(b1-4)GlcNAc(b1-6)]Man(a1-6)[Gal(b1-3)GlcNAc(b1-3)Gal(b1-4)GlcNAc(b1-3)Gal(b1-4)GlcNAc(b1-2)Man(a1-3)]Man(b1-4)GlcNAc(b1-4)[Fuc(a1-6)]GlcNAc
# Summary of the method: as §1
# [21] = biological target: Gal(b1-3)GlcNAc(b1-3)Gal(b1-4)GlcNAc(b1-6)[Gal(b1-3)GlcNAc(b1-3)]Gal(b1-4)Glc
# Summary of the method: as §1
# [22] = biological target: Gal(b1-3)GlcNAc(b1-3)Gal(b1-4)[Fuc(a1-3)]GlcNAc
# Summary of the method: as §1
# [23] = biological target: Gal(b1-3)GlcNAc(b1-3)Gal(b1-4)[Fuc(a1-3)]GlcNAc(b1-6)[Gal(b1-3)GlcNAc(b1-3)]Gal(b1-4)Glc
# Summary of the method: as §1
# [24] = biological target: Gal(b1-3)GlcNAc(b1-3)GalNAc
# Summary of the method: as §1
# [25] = biological target: Gal(b1-3)GlcNAc(b1-6)Gal(b1-4)GlcNAc
# Summary of the method: as §1
# [26] = biological target: Gal(b1-3)GlcNAc(b1-6)GalNAc
# Summary of the method: as §1
# [27] = biological target: Gal(b1-3)GlcNAc(b1-6)[Gal(b1-3)]GalNAc
# Summary of the method: as §1
# Gal(b1-3)GlcNAc6S = biological target: Gal(b1-3)GlcNAc6S
# Summary of the method: as §1
# [28] = biological target: Gal(b1-3)[Fuc(a1-4)]GlcNAc
# Summary of the method: as §1
binder,measurement,setting,value
B1,glycan array binding signal (z-score),[1],-0.244
same,glycan array binding signal (z-score),[2],-0.232
same,glycan array binding signal (z-score),Gal(a1-4)GlcNAc,-0.277
same,glycan array binding signal (z-score),Gal(a1-6)Glc,-0.333
same,glycan array binding signal (z-score),Gal(b1-2)Gal,0.049
same,glycan array binding signal (z-score),Gal(b1-3)Gal,-0.228
same,glycan array binding signal (z-score),Gal(b1-3)Gal(b1-4)GlcNAc,0.278
same,glycan array binding signal (z-score),[3],-0.491
same,glycan array binding signal (z-score),Gal(b1-3)GalNAc,-0.271
same,glycan array binding signal (z-score),[4],-0.329
same,glycan array binding signal (z-score),[5],-0.178
same,glycan array binding signal (z-score),Gal(b1-3)GalNAc(b1-3)Gal,-0.243
same,glycan array binding signal (z-score),[6],0.788
same,glycan array binding signal (z-score),[7],-0.013
same,glycan array binding signal (z-score),[8],0.46
same,glycan array binding signal (z-score),Gal(b1-3)GlcNAc,-0.245
same,glycan array binding signal (z-score),[9],-0.256
same,glycan array binding signal (z-score),[10],-0.268
same,glycan array binding signal (z-score),Gal(b1-3)GlcNAc(b1-2)Man,-0.249
same,glycan array binding signal (z-score),[11],-0.266
same,glycan array binding signal (z-score),[12],-0.256
same,glycan array binding signal (z-score),[13],-0.263
same,glycan array binding signal (z-score),[14],-0.294
same,glycan array binding signal (z-score),[15],-0.283
same,glycan array binding signal (z-score),[16],-0.274
same,glycan array binding signal (z-score),[17],-0.284
same,glycan array binding signal (z-score),[18],-0.261
same,glycan array binding signal (z-score),[19],-0.009
same,glycan array binding signal (z-score),[20],-0.086
same,glycan array binding signal (z-score),[21],-0.24
same,glycan array binding signal (z-score),[22],-0.256
same,glycan array binding signal (z-score),[23],-0.268
same,glycan array binding signal (z-score),[24],-0.253
same,glycan array binding signal (z-score),[25],-0.255
same,glycan array binding signal (z-score),[26],3.91
same,glycan array binding signal (z-score),[27],-0.212
same,glycan array binding signal (z-score),Gal(b1-3)GlcNAc6S,-0.252
same,glycan array binding signal (z-score),[28],-0.263
